Hit rate of the full screen: of about 220,000 compounds, about 16,000 (7.3%) were called active. The inconclusive results got no clear call from the source; some entries with a clear call stand among them for comparison. Calls follow the shape of the dose curve; as a rule, active = well fitted inhibition curve with a large enough effect (not every such curve was filed as active); inconclusive = small, poorly fitted or top-dose-only effect, or another doubt; inactive = no such curve, though single readings can be large or run the other way. Potencies of inconclusive entries are left out as doubtful fits.
The compounds below were run against Aldehyde dehydrogenase 1A1 (Homo sapiens) (UniProt P00352) (assay: qHTS Assay for Inhibitors of Aldehyde Dehydrogenase 1 (ALDH1A1)). Conditions: Purified ALDH1A1, NADH fluorescence, propionaldehyde substrate; series mostly up to 75.3 µM; activity, negative = inhibition: at the top concentration.
Chain of UniProt P00352 (P00352 whole entry, looked up): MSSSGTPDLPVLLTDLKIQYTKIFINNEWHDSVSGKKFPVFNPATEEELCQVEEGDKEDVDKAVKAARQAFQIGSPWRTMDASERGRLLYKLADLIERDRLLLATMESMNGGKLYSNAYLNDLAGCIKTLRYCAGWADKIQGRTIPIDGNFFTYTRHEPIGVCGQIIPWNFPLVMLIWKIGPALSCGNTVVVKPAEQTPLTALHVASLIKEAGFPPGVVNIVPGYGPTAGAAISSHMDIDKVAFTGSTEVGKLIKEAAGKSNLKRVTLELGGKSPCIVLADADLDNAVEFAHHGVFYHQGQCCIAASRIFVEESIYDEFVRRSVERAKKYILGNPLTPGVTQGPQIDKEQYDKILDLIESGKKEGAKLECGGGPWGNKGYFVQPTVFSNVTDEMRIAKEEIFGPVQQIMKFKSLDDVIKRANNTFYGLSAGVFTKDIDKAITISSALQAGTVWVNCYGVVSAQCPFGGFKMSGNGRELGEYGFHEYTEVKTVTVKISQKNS

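For activity, negative = inhibition in this document: plate controls were no enzyme wells and a reference inhibitor.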
Potency is read from the fitted curve at half-maximal effect; tags tell the direction and shape of the fitted curve.

| Compound | Potency | activity, negative = inhibition |
| --- | --- | --- |
| COC(C(=O)Nc1ccc(S(=O)(=O)Nc2cccc3ccccc23)cc1)c1ccccc1 (centres undefined) | inconclusive [inhibitor, single point] | – |
| COc1ccccc1CN1CCN(S(=O)(=O)c2ccccc2)CC1 | inconclusive [inhibitor, single point] | – |
| COc1ccc(/C=C/C(=O)OCC(=O)Nc2cc(C(N)=O)cc(C(N)=O)c2)cc1 | inconclusive [inhibitor, single point] | – |
| CC(C)(C)c1ccc(NC(=S)NCCc2ccccn2)cc1 | inconclusive [inhibitor, partial curve, poor fit] | – |
| CSc1nc2ccc3nc(NC(=O)C4COc5ccccc5O4)sc3c2s1 (centres undefined) | inconclusive [inhibitor, single point] | – |
| COc1ccc(OC)c2c1sc(=NC(=O)c1ccco1)n2C | inconclusive [inhibitor, partial curve, poor fit] | – |
| Cc1ccc(NC(=O)Cn2c(CCC(=O)O)ccc2-c2cccs2)cc1Cl | inconclusive [inhibitor, single point] | – |
| CC(=O)N1CC=C2C(C#N)=C(N)C(C#N)(C#N)C(CCc3ccccc3)C2C1 (centres undefined) | inconclusive [inhibitor, partial curve] | – |
| CC1=NOC(=O)/C1=C\c1ccc(-c2ccc(Cl)cc2Cl)o1 | active: 10 µM | – |
| COc1ccc(OC)c(Cc2nnc(CCC(=O)N3CCCCC3)o2)c1 | – | inactive: -0.549% |
| O=C(CCN1C(=O)c2ccncc2C1=O)Nc1cc(F)ccc1F | – | inactive: 1.86% |
| COCCNC(=O)c1cc2c(-c3ccc(Cl)cc3)nn(C)c2s1 | inconclusive [inhibitor, partial curve] | – |
| O=C(CN(Cc1ccccc1)S(=O)(=O)c1ccccc1)N/N=C/c1ccccc1[N+](=O)[O-] | active: 11.2 µM | – |
| COC(=O)C1=C(C(=O)OC)[C@@H]2N(C)c3ccccc3[C@@]23C[C@@H](C(=O)OC)N(S(=O)(=O)c2ccc([N+](=O)[O-])cc2)C3=N1 | – | inactive: 2.41% [at 13.5 µM] |
| O=C(CSc1ncn[nH]1)Nc1ccnc2ccccc12 | active: 22.4 µM | – |
| CCOC(=O)c1c(C)c(C(=O)Nc2cc(OC)ccc2OC)c(C)n1CC | inconclusive [inhibitor, single point] | – |
| O=[N+]([O-])c1ccc(/C=N/Nc2ccc3ccccc3c2)o1 | – | inactive: 6.49% |
| Cc1nc(COC(=O)c2cc(O)c3ccccc3c2O)cs1 | inconclusive [inhibitor, partial curve] | – |
| C/C(=N\NC(=O)c1ccc(Cl)c(S(=O)(=O)Nc2ccccc2Cl)c1)c1ccncc1 | inconclusive [inhibitor, single point] | – |
| Cc1cc(C)c2c(-n3cccc3)c(NC(=O)OC(C)C)sc2n1 | inconclusive [inhibitor, single point] | – |
| N#CC1=C(N)C(C#N)(C#N)[C@H](c2ccsc2)[C@H]2COCC=C12 | inconclusive [inhibitor, single point] | – |
| COc1ccc(NS(=O)(=O)c2cccc(-c3n[nH]c(=S)n3Cc3ccccc3)c2)cc1 | active: 0.447 µM | – |
| Cc1cc2cc(CNC(=O)c3cc4ccccc4o3)ccc2n1C | inconclusive [inhibitor, single point] | – |

| Compound | Potency | activity, negative = inhibition |
| --- | --- | --- |
| NC(=O)c1ccc(N2CCC(C(N)=O)CC2)c([N+](=O)[O-])c1 | – | inactive: 10.5% |
| OCC1CCCN(Cc2cn(Cc3ccccc3)nc2-c2cc3ccccc3o2)C1 (centres undefined) | inconclusive [inhibitor, single point] | – |
| Cc1ccc2cc(C#N)c(SCC(=O)NCc3ccco3)nc2c1 | inconclusive [inhibitor, single point] | – |
| COc1cc(/C=N/Nc2nc3ccccc3o2)cc(OC)c1O | – | inactive: 0.0125% |
| COc1ccc(-c2nc(CNS(=O)(=O)c3cc(OC)ccc3OC)cs2)cc1 | inconclusive [inhibitor, single point] | – |
| CCOc1nc(NC(=O)NS(=O)(=O)c2cccc(Cl)c2)nc(-c2ccccc2)n1 | – | inactive: 16.5% |
| Brc1c(CSc2nnc(-c3ccco3)o2)nc2ccccn12 | inconclusive [inhibitor, single point] | – |
| O=C(O)c1ccc(N/N=C/C=C/c2ccccc2[N+](=O)[O-])cc1 | inconclusive [inhibitor, single point] | – |
| Cc1cc(C(=O)CSc2nnc(N)s2)c(C)n1-c1c(C)n(C)n(-c2ccccc2)c1=O | – | inactive: 0.898% |
| CCN1C(=O)C=CC1=O | inconclusive [inhibitor, partial curve] | – |
| CCOC(=O)c1ccc2[nH]cc(C(C)=O)c(=O)c2c1 | inconclusive [inhibitor, partial curve] | – |
| CC(=O)CCc1oc2ccc(C)cc2c1-c1ccc(C)o1 | inconclusive [inhibitor, single point] | – |
| COCc1cc(S(=O)c2ccc(Cl)cc2)nc(C)n1 (centres undefined) | active: 17.8 µM | – |
| Cc1ccc(C(=O)OCC(=O)NCc2ccc3c(c2)OCO3)s1 | inconclusive [inhibitor, single point] | – |
| O=C(O)c1ccc(Sc2nnnn2-c2ccccc2)c([N+](=O)[O-])c1 | – | inactive: -8.92% |
| Cc1ccc(NC(=S)NCCC(c2ccccc2)c2ccccc2)c(C)c1 | inconclusive [inhibitor, single point] | – |
| CCOc1c2ccc(C(=O)NCCCCc3ccccc3)cc2nn1C | inconclusive [inhibitor, partial curve] | – |
| CCSc1nc2c(c(=O)[nH]1)C(c1ccc(C)cc1)C1=C(CCCC1=O)N2 (centres undefined) | – | inactive: 3.69% |
| C=CCc1ccc(OCC(O)COc2ccc(CC=C)cc2OC)c(OC)c1 | active: 10 µM | – |
| Cc1ccc2c(c1)Cc1nc3ccccc3nc1-2 | inconclusive [inhibitor, partial curve] | – |
| CCCCN(C(=O)Nc1ccc(Cl)cc1)C1CCN(C(C)=O)CC1 | inconclusive [inhibitor, single point] | – |
| CN(C)Cc1ccccc1Sc1ccc(Br)cc1 | – | inactive: 11.9% |
| O=C(CN1CC(=O)Oc2ccccc21)OCC(=O)c1ccc(F)cc1 | active: 20 µM | – |

| Compound | Potency | activity, negative = inhibition |
| --- | --- | --- |
| CCCCN(C(=O)CSc1nnc(Nc2ccccc2)s1)c1c(N)n(CCC)c(=O)[nH]c1=O | – | inactive: -10.2% |
| NS(=O)(=O)c1cc(C(=O)O)c(O)c2ccccc12 | – | inactive: -14.8% [at 13.5 µM] |
| Cc1ccc(S(=O)(=O)N2CCCC(c3nc(-c4ccc(C)o4)no3)C2)cc1 (centres undefined) | inconclusive [inhibitor, single point] | – |
| c1ccc(CCNc2nnnn2-c2ccccc2)cc1 | inconclusive [inhibitor, partial curve, poor fit] | – |
| Cc1cc(C)c(C#N)c(SCC2COc3ccccc3O2)n1 (centres undefined) | inconclusive [inhibitor, partial curve] | – |
| CCOC(=O)c1c(-c2cccc([N+](=O)[O-])c2)csc1NC(=O)CCCOc1ccccc1OC | active: 28.2 µM | – |
| COC(=O)CCC/C=C1\SC[C@@H](NC(=O)c2ccccc2)C1NC(C)=O (some centres undefined) | – | inactive: -5.13% |
| CCn1nnc(-c2ccccc2NS(=O)(=O)c2ccc(S(=O)(=O)N(C)C3CCCCC3)cc2)n1 | inconclusive [inhibitor, single point] | – |
| CN(C)c1oc(/C=C/c2ccccc2)nc1C#N | inconclusive [inhibitor, partial curve] | – |
| Cc1c(C(=O)Nc2ccc3oc(-c4cccnc4)nc3c2)oc2ccccc12 | inconclusive [inhibitor, partial curve] | – |
| Cc1cc2nc(SCC(=O)Nc3ccccc3C(=O)O)[nH]c2cc1C | – | inactive: 5.31% |
| CC(=O)CC(=O)[C@@]1(O)CC[C@@H]2[C@@H]3C=C(C)C4=CC(=O)CC[C@@H]4[C@H]3CC[C@]21C | – | inactive: 2.59% [at 20.9 µM] |
| CNC(=O)COC(=O)[C@@H](Nc1ccc(S(=O)(=O)N2CCOCC2)cc1[N+](=O)[O-])C(C)C | inconclusive [inhibitor, single point] | – |
| CC(C)COc1ccc(-c2nnc(-c3ccncc3)o2)cc1 | inconclusive [inhibitor, partial curve] | – |
| O=C(CCC1CCCN(C(=O)Cn2cnnn2)C1)NCc1ccccc1F (centres undefined) | – | inactive: -3.28% |
| CCN(C1=NS(=O)(=O)c2ccccc21)N(CC)S(=O)(=O)c1ccc(C)cc1 | inconclusive [inhibitor, single point] | – |
| CCCCCCN(C(=O)CCCCCN1C(=O)NC(c2ccc([N+](=O)[O-])cc2)C(C(=O)OCc2ccccc2)=C1C)C(C(=O)NCCCC)c1ccc(OCC(=O)OC)c(C(=O)OC)c1 (centres undefined) | inconclusive [inhibitor, single point] | – |
| C=C(C)COc1ccc(-c2nc(N)ncc2Oc2ccc(OC)cc2)c(O)c1 | inconclusive [inhibitor, single point] | – |
| CCC(Cc1ccccc1)NC(=O)CN(C)S(=O)(=O)c1ccc2c(c1)c(=O)n(C)c(=O)n2C (centres undefined) | inconclusive [inhibitor, single point] | – |
| COc1ccc2[nH]c(=O)c(CN(CC3CCCO3)C(=O)Nc3ccc(F)cc3)cc2c1 (centres undefined) | inconclusive [inhibitor, partial curve] | – |
| C[C@@]12C=Cc3occc3C1CC[C@@]13C[C@@H](CCC12)[C@@](O)(CO)C3 (some centres undefined) | active: 1.41 µM | – |
| CS(=O)(=O)Nc1ccccc1C(=O)O | inconclusive [inhibitor, partial curve] | – |
| COc1ccc(N2C(=O)CC(Nc3cccc(C(C)=O)c3)C2=O)cc1OC (centres undefined) | inconclusive [inhibitor, partial curve] | – |

Source: PubChem BioAssay AID1030 (National Center for Advancing Translational Sciences (NCATS), 2008)
